Molecular target: T1, Vtc1/Vtc3/Vtc4 complex (VTC complex) (Saccharomyces cerevisiae, UniProt P47075+Q02725, P47075:R264A/P47075:R266A/P47075:E426N)
T1 construct: full-length subunits co-expressed in Expi293F; Vtc1 C-terminal HA, Vtc3 N-terminal 3xFlag, Vtc4 C-terminal 2xStrep; detergent-purified; 3:1:1 pentamer; with Vacuolar transporter chaperone complex subunit 1
T1 sequence (P47075 1-721 R264A/R266A/E426N): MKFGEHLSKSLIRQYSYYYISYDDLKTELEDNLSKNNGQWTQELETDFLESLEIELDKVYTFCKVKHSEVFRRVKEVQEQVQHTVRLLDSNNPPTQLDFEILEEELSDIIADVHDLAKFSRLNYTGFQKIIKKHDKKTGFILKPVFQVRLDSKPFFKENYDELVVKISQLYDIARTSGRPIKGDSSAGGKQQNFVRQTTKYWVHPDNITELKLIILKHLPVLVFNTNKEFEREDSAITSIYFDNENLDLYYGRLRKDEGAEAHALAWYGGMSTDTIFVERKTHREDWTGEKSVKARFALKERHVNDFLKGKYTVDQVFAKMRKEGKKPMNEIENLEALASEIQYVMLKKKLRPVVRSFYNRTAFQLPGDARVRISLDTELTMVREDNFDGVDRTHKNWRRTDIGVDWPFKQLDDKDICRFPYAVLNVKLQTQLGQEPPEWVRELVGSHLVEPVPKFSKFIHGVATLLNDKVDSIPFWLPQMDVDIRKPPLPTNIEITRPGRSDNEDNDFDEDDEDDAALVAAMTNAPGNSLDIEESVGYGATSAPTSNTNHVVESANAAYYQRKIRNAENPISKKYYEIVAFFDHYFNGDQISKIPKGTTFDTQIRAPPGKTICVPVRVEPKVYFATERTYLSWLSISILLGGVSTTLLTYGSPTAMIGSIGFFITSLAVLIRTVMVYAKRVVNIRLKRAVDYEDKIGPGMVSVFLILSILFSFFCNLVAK
T1 sequence (Q02725 1-835): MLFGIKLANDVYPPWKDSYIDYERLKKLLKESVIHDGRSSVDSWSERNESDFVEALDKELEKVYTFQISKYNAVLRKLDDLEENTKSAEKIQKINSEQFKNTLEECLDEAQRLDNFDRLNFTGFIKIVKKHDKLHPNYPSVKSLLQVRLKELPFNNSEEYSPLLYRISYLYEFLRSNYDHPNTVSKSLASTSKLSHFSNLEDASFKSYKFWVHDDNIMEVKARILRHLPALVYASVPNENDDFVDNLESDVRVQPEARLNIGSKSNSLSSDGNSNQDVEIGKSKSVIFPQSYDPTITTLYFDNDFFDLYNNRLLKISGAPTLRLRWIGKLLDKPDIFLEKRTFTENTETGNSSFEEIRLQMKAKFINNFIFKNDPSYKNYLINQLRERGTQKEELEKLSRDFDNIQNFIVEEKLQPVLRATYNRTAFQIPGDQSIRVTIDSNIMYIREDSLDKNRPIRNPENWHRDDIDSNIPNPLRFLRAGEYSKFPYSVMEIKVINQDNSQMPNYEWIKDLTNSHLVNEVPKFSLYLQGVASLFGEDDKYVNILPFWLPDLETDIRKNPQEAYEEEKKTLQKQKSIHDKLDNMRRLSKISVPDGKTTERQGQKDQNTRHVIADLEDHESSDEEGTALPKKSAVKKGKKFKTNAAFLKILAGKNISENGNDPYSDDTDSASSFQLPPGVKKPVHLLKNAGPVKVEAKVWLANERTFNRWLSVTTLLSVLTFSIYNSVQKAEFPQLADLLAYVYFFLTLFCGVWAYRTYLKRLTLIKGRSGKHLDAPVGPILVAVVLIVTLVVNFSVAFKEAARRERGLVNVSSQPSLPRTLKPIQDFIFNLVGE
T1 sequence (P40046 2-129 partner): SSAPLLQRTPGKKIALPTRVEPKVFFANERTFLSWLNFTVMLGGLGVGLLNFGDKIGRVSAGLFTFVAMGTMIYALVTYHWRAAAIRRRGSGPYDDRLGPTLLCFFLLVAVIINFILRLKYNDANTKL
Assay: cryo-EM structure, […] Å
Settings: 1 mM InsP6; pH 8.0; three sites: SPX of Vtc4, TTM Vtc3-TTM Vtc4 cleft, TTM Vtc4 tunnel; catalytically impaired complex

## O=P(O)(O)O[C@H]1[C@H](OP(=O)(O)O)[C@@H](OP(=O)(O)O)[C@H](OP(=O)(O)O)[C@@H](OP(=O)(O)O)[C@H]1OP(=O)(O)O [InsP6]
  cryo-EM structure, 3.0 Å: Three InsP6 molecules were identified in the VTC complex structure

— paper PMC9911596 (Nature Communications, 2023)
